The results in this text go back to PubChem BioAssay AID330 (DTP/NCI, 2004).

The test system of this assay is P388 leukemia ip, CD2F1 mice, survival T/C. The assay is described as follows: NCI In Vivo Anticancer Drug Screen. Data for tumor model P388 Leukemia (intraperitoneal) in CD2F1 (CDF1) mice. The following applies: endpoint: median survival time, higher = longer survival.

Inconclusive results and toxic doses are left out. Not every entry of the source has a single result; some have several. They are shown here; other results are not. There may be further records. Values that stand side by side differ for a reason that is not stated; dose, time, organism, isomer or construct need not be as stated for each record.

For the compound `COc1cccc2c1C(CO)N1C(C#N)C3CC(C(=O)O)C(C1C2)N3C` (configuration not stated), the T/C (dose: 25.0 mg/kg/injection, schedule: Q01DX005 (ip), vehicle: suspension in saline) was 96 % of control and 180 % of control. With `CCCCC(=O)OCC(=O)[C@]1(O)Cc2c(O)c3c(c(O)c2[C@@H](OC2CC(NC(=O)C(F)(F)F)C(O)C(C)O2)C1)C(=O)c1c(OC)cccc1C3=O` (some centres not stated), the T/C (dose: 150.0 mg/kg/injection, schedule: Q04DX003 (ip), vehicle: clinical formulation) was 90 % of control, 98 % of control, 155 % of control.
